Source: patent publication US20260166128A1, “HUMAN AMYLIN ANALOG, AND DERIVATIVE THEREOF AND USE THEREOF” (priority 2022, published 2026)
Where two headings read alike, the source gives them in different places. Not every detail of the peptide structures is certain; ends, links or a residue may be inferred. At least one structure is not confirmed: it was looked up by name or label, or the drawing left a doubt. Numbered stars: 1 amine (or outer) side, 2 acyl side, 3 side chain; on linkers, the order of the positions; unused ones are H or OH. Bridge positions count the residues as written; N and C are the ends. Square brackets hold non-standard residues; d marks the D form. Side chains are listed from the residue outwards. Peptide text beside a SMILES is read from it. * marks the point of attachment. C20 diacid = O=C(O)CCCCCCCCCCCCCCCCCCC(=O)*; γGlu = O=C(O)[C@H](CCC(=O)[*:2])N[*:1]; Hyp = O=C(O)[C@@H]1C[C@@H](O)CN1

How the values were obtained:
[1] = Weight loss efficacy of derivatives in SD rats (Example 5); format: in vivo, SD (Sprague Dawley) rats; settings: experimental group A, subcutaneous, 30 nmol/kg
Source text: SD (Sprague Dawley) rats weighing 200 g to 250 g were selected for this experimental study. Before the experiment, the rats arrived for at least 10 days to 14 days to adapt to the experimental environment. During this period, the rats were fed for two weeks in a reversed light/dark stage (meaning that the light was turned off during the day and turned on during the night) after arrival, and were fed separately in the first week of arrival to ensure accurate data and high test sensitivity, and the rats were free to obtain food and water during the whole adaptation period and experimental period. There were an experimental group [NT]5 and A6, and an experimental group B: B1, B2, B3, B4 and B5, with 5 to 8 rats in each treatment group of the derivative, and the rats in each group were subcutaneously administered with a derivative or a solvent by a dosage of 30 nmol/kg. The administration time of each group was recorded. After administration, the rats were put back into their cages in which the rats could get food and water. Food consumption and weight changes of the rats were recorded every 24 hours by online recording or manual recording. Weight and food intake changes of the SD rats in each group were as shown in FIG. 2A to FIG. 2D, Table 9 and Table 10.

[2] = Freeze-thaw stability of derivatives (freeze-thaw yield by liquid chromatography); format: physicochemical; settings: for Dissolution property: appearance after dissolution at 0.2 mg/ml in 20 mM phosphate buffer solution (PB) (pH 7.0); for Freeze storage property: appearance after overnight storage at −20° C. and thawing to room temperature, 0.2 mg/ml in 20 mM PB (pH 7.0); for Freeze storage yield: concentration of polypeptide after freezing and thawing / concentration before, by liquid chromatography, −20° C. overnight
Procedure, shortened: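 Freeze-thaw yield is the ratio of peptide concentration after versus before one overnight −20° C freeze and room-temperature thaw, both quantified by RP-HPLC of supernatant after centrifugation. Samples were 0.2 mg/ml freeze-dried derivative in 20 mM PB, pH 7.0.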

[3] = Weight loss effect of dosage of derivatives in SD rats (Example 6); format: in vivo; settings: subcutaneous
Description: SD rats obtained by the same method as in Example 5 were used in this experimental study. There were an experimental group C: C1 to C13, and an experimental group D: D1 to D7, with 5 to 8 rats in each group of the derivative test, and according to administration schemes as shown in Table 11 and Table 12, the rats in each group […] The administration time of each group was recorded. After administration, the rats were put back into their cages in which the rats could get food and water. Food consumption and weight changes of the rats were recorded every 24 hours by online recording or manual recording. Weight and cumulative food intake changes of the SD rats in each group were as shown in FIG. 3A to FIG. 3D, FIG. 4A to FIG. 4B, Table 11 and Table 12.

[4] = format: physicochemical; settings: 40° C.
Description: The penicillin bottle after covering was placed in a stability test box at 40° C. Before testing, a sample was centrifuged at 10,000 rpm and 4° C. for 3 minutes, and a supernatant was taken and added into a liquid-phase sample injection bottle. The sample was detected by the liquid phase method in Example 3.

[5] = experimental group C, 10 nmol/kg
[6] = experimental group C, 30 nmol/kg
[7] = experimental group C, 100 nmol/kg
[8] = experimental group D, 10 nmol/kg
[9] = experimental group D, 30 nmol/kg
[10] = experimental group D, 100 nmol/kg

SMILES	Weight change rate at 48th hour [1]	Dissolution property [2]	Freeze storage property [2]	Freeze storage yield [2] [%]	Cumulative food intake at 72nd hour [3, 5] [g]	Weight change rate at 72nd hour [3, 5] [%]	Cumulative food intake at 72nd hour [3, 6] [g]	Weight change rate at 72nd hour [3, 6] [%]	Cumulative food intake at 72nd hour [3, 7] [g]	Weight change rate at 72nd hour [3, 7] [%]	Decrease percentage of protein concentration ([4]; pH about 7.4, 0 d) [%]	Protein concentration ([4]; pH about 7.4, 0 d) [mg/mL]	Decrease percentage of protein concentration ([4]; pH about 7.4, 7 d) [%]	Protein concentration ([4]; pH about 7.4, 7 d) [mg/mL]	Decrease percentage of protein concentration ([4]; pH about 7.4, 15 d) [%]	Protein concentration ([4]; pH about 7.4, 15 d) [mg/mL]	other results
CC[C@H](C)[C@H](NC(=O)[C@@H]1CCCN1C(=O)CNC(=O)[C@H](CC(C)C)NC(=O)[C@H](CC(N)=O)NC(=O)[C@H](CC(N)=O)NC(=O)[C@H](CO)NC(=O)[C@H](CO)NC(=O)[C@H](Cc1c[nH]cn1)NC(=O)[C@H](CCCNC(=N)N)NC(=O)[C@H](CC(C)C)NC(=O)[C@H](Cc1ccccc1)NC(=O)[C@H](CC(=O)O)NC(=O)[C@H](C)NC(=O)[C@H](CC(C)C)NC(=O)[C@H](CCCNC(=N)N)NC(=O)[C@H](CCC(N)=O)NC(=O)[C@@H](NC(=O)[C@H](C)NC(=O)[C@@H]1CSSC[C@H](NC(=O)[C@H](CCCCN)NC(=O)CC[C@H](NC(=O)CCCCCCCCCCCCCCCCCCC(=O)O)C(=O)O)C(=O)N[C@@H](CC(N)=O)C(=O)N[C@@H]([C@@H](C)O)C(=O)N[C@@H](C)C(=O)N[C@@H]([C@@H](C)O)C(=O)N1)[C@@H](C)O)C(=O)N[C@@H](CC(C)C)C(=O)N1CCC[C@H]1C(=O)N1CCC[C@H]1C(=O)N[C@H](C(=O)N[C@@H](CC(N)=O)C(=O)N[C@H](C(=O)NCC(=O)N[C@@H](CO)C(=O)N[C@@H](CC(N)=O)C(=O)N[C@H](C(=O)N1C[C@H](O)C[C@H]1C(N)=O)[C@@H](C)O)C(C)C)[C@@H](C)O [PD069] ({C20 diacid-γGlu}-KCNTATCATQRLADFLRHSSNNLGPILPPTNVGSNT[Hyp]-NH2; disulfide 2-7)	−8.70	Clear	Clear	100.00	67.05	1.36	54.14	−4.16	40.5	−7.88	0.00	1.01	31.57	0.69	47.84	0.52	
CC[C@H](C)[C@H](NC(=O)[C@@H]1CCCN1C(=O)CNC(=O)[C@H](CC(C)C)NC(=O)[C@H](CC(N)=O)NC(=O)[C@H](CC(N)=O)NC(=O)[C@H](CO)NC(=O)[C@H](CO)NC(=O)[C@H](Cc1c[nH]cn1)NC(=O)[C@H](CCCNC(=N)N)NC(=O)[C@H](CC(C)C)NC(=O)[C@H](Cc1ccccc1)NC(=O)[C@H](CC(=O)O)NC(=O)[C@H](C)NC(=O)[C@H](CC(C)C)NC(=O)[C@H](CCCNC(=N)N)NC(=O)[C@H](CCC(N)=O)NC(=O)[C@@H](NC(=O)[C@H](C)NC(=O)[C@@H]1CSSC[C@H](NC(=O)[C@@H](N)CCCCNC(=O)CC[C@H](NC(=O)CCCCCCCCCCCCCCCCCCC(=O)O)C(=O)O)C(=O)N[C@@H](CC(N)=O)C(=O)N[C@@H]([C@@H](C)O)C(=O)N[C@@H](C)C(=O)N[C@@H]([C@@H](C)O)C(=O)N1)[C@@H](C)O)C(=O)N[C@@H](CC(C)C)C(=O)N1CCC[C@H]1C(=O)N1CCC[C@H]1C(=O)N[C@H](C(=O)N[C@@H](CC(N)=O)C(=O)N[C@H](C(=O)NCC(=O)N[C@@H](CO)C(=O)N[C@@H](CC(N)=O)C(=O)N[C@H](C(=O)N1C[C@H](O)C[C@H]1C(N)=O)[C@@H](C)O)C(C)C)[C@@H](C)O [PD070] (H-K([γGlu-C20 diacid])CNTATCATQRLADFLRHSSNNLGPILPPTNVGSNT[Hyp]-NH2; disulfide 2-7)	−7.86	Clear	Clear	100.00	65.71	0.47	51.4	−4.96	45.04	−8.47	0.00	0.98	2.53	0.95	6.28	0.92	
CC[C@H](C)[C@H](NC(=O)[C@@H]1CCCN1C(=O)[C@H](CCCCN)NC(=O)[C@H](CC(C)C)NC(=O)[C@H](CC(N)=O)NC(=O)[C@H](CC(N)=O)NC(=O)[C@H](CO)NC(=O)[C@H](CO)NC(=O)[C@H](Cc1c[nH]cn1)NC(=O)[C@H](CCCNC(=N)N)NC(=O)[C@H](CC(C)C)NC(=O)[C@H](Cc1ccccc1)NC(=O)[C@H](CC(=O)O)NC(=O)[C@H](C)NC(=O)[C@H](CC(C)C)NC(=O)[C@H](CCCNC(=N)N)NC(=O)[C@H](CCC(N)=O)NC(=O)[C@@H](NC(=O)[C@H](C)NC(=O)[C@@H]1CSSC[C@H](NC(=O)[C@H](CCCCN)NC(=O)CC[C@H](NC(=O)CCCCCCCCCCCCCCCCCCC(=O)O)C(=O)O)C(=O)N[C@@H](CC(N)=O)C(=O)N[C@@H]([C@@H](C)O)C(=O)N[C@@H](C)C(=O)N[C@@H]([C@@H](C)O)C(=O)N1)[C@@H](C)O)C(=O)N[C@@H](CC(C)C)C(=O)N1CCC[C@H]1C(=O)N1CCC[C@H]1C(=O)N[C@H](C(=O)N[C@@H](CC(N)=O)C(=O)N[C@H](C(=O)NCC(=O)N[C@@H](CO)C(=O)N[C@@H](CC(N)=O)C(=O)N[C@H](C(=O)N1C[C@H](O)C[C@H]1C(N)=O)[C@@H](C)O)C(C)C)[C@@H](C)O [PD071] ({C20 diacid-γGlu}-KCNTATCATQRLADFLRHSSNNLKPILPPTNVGSNT[Hyp]-NH2; disulfide 2-7 (inferred))	−10.58	Clear	Clear	100.80							0.00	0.71	46.69	0.38	58.16	0.30	Cumulative food intake at 72nd hour [3, 8]: 47.17 g; Weight change rate at 72nd hour [3, 8]: 1.34%; Cumulative food intake at 72nd hour [3, 9]: 36.81 g; Weight change rate at 72nd hour [3, 9]: −4.77%; Cumulative food intake at 72nd hour [3, 10]: 30.54 g; Weight change rate at 72nd hour [3, 10]: −7.54%
CC[C@H](C)[C@H](NC(=O)[C@@H]1CCCN1C(=O)[C@H](CCCCN)NC(=O)[C@H](CC(C)C)NC(=O)[C@H](CC(N)=O)NC(=O)[C@H](CC(N)=O)NC(=O)[C@H](CO)NC(=O)[C@H](CO)NC(=O)[C@H](Cc1c[nH]cn1)NC(=O)[C@H](CCCNC(=N)N)NC(=O)[C@H](CC(C)C)NC(=O)[C@H](Cc1ccccc1)NC(=O)[C@H](CC(=O)O)NC(=O)[C@H](C)NC(=O)[C@H](CC(C)C)NC(=O)[C@H](CCCNC(=N)N)NC(=O)[C@H](CCC(N)=O)NC(=O)[C@@H](NC(=O)[C@H](C)NC(=O)[C@@H]1CSSC[C@H](NC(=O)[C@@H](N)CCCCNC(=O)CC[C@H](NC(=O)CCCCCCCCCCCCCCCCCCC(=O)O)C(=O)O)C(=O)N[C@@H](CC(N)=O)C(=O)N[C@@H]([C@@H](C)O)C(=O)N[C@@H](C)C(=O)N[C@@H]([C@@H](C)O)C(=O)N1)[C@@H](C)O)C(=O)N[C@@H](CC(C)C)C(=O)N1CCC[C@H]1C(=O)N1CCC[C@H]1C(=O)N[C@H](C(=O)N[C@@H](CC(N)=O)C(=O)N[C@H](C(=O)NCC(=O)N[C@@H](CO)C(=O)N[C@@H](CC(N)=O)C(=O)N[C@H](C(=O)N1C[C@H](O)C[C@H]1C(N)=O)[C@@H](C)O)C(C)C)[C@@H](C)O [PD072] (H-K([γGlu-C20 diacid])CNTATCATQRLADFLRHSSNNLKPILPPTNVGSNT[Hyp]-NH2; disulfide 2-7)	−12.75	Clear	Clear	103.19	53.99	−2.43	47.96	−6.61	44.84	−8.30	0.00	0.96	38.60	0.59	49.27	0.49	
